The values that follow come from paper PMC9804489, “Phase 1/1b Studies of UCB0599, an Oral Inhibitor of α‐Synuclein Misfolding, Including a Randomized Study in Parkinson's Disease” (Movement Disorders, 2022).

Data set [1] can be described thus: UP0030 phase 1 study: cerebrospinal fluid (CSF) concentration ~2 hours after administration. Particulars: MAD 180 mg/day, day 21.
Data set [2] is described as follows: UP0078 phase 1 study: effect of food and ITZ on single-dose PK of UCB0599. The data set is classed as in vivo, human. As to the method: Statistical evaluations for all three studies were performed using SAS version 9.4 (SAS, Cary, NC, USA), and PK data were analyzed using Phoenix WinNonlin software (Certara, Princeton, NJ, USA). Continuous variables were summarized with number of participants, mean, standard deviation, median, minimum and maximum, and confidence intervals (CI) for the mean. Categorical variables were summarized with frequency counts and percentages.

As for `CCCC[C@H](Cc1c[nH]c2ccccc12)NC(=O)c1cnc(N2CCN(C)CC2)s1` [UCB0599], the “Concentration in the CSF, GeoMean” value in data set [1] was determined as 4.88 ng/mL. Further, the “GeoLSM fed/fasted ratio for C max” value in data set [2] (180 mg single dose, 90% CI 90.79–120.2) is on record as 104.5%. Besides, the “GeoLSM fed/fasted ratio for AUC(0–t)” value in data set [2] (180 mg single dose, 90% CI 104.4–113.7) is recorded as 108.9%. Moreover, the “Median difference in t max between fed and fasted” value in data set [2] (Hodges–Lehmann estimate, 90% CI 1.0–2.0) was 1.5 h. For the same compound, in data set [2] (standard high‐fat, high‐calorie meal, 180 mg), the “Food effect on UCB0599 absorption” value was “no meaningful food effect”.
